# Results reported in PubChem BioAssay AID624417 (National Center for Advancing Translational Sciences (NCATS), 2012).
# Values joined by “and” are separate entries in the source; they are usually repeats but may differ in a detail not shown here. Equal values may be shown once. Screen size: about 410,000 compounds; about 6,400 (1.6%) were called active. This list was built around the results that the source calls inconclusive (neither active nor inactive); the mix of calls is not that of the screen. The call rests on the fitted dose curve; in most records, active means well fitted inhibition curve with a large enough effect; inconclusive means small, poorly fitted or top-dose-only effect; inactive means no such curve, though single readings can be large or run the other way. A potency beside an inconclusive call is a rough fit, not a confirmed value.
# Biological target: Glucagon-like peptide 1 receptor (Homo sapiens) (UniProt P43220)
# Assay: qHTS of GLP-1 Receptor Inverse Agonists (Inhibition Mode); further: nearly all actives have a fitted effect of over 55% in size
# Details: HEK293 GLP-1R CRE-luciferase, luminescence, 24 h, GLP-1R form is constitutively active; series mostly up to 38.3 µM
# In short: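 Cells are plated, allowed 12 hours at 37 deg C, then treated with compounds for 24 hr before luciferase detection reagent is added and luminescence is read after 12 min at room temperature. The HEK293 line carries constitutively active GLP-1R with a cAMP-responsive reporter.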
# Potency means the concentration at half of the fitted maximal effect; tags describe the fitted curve by direction and shape.
# Sequence of UniProt P43220 (P43220 whole entry, looked up): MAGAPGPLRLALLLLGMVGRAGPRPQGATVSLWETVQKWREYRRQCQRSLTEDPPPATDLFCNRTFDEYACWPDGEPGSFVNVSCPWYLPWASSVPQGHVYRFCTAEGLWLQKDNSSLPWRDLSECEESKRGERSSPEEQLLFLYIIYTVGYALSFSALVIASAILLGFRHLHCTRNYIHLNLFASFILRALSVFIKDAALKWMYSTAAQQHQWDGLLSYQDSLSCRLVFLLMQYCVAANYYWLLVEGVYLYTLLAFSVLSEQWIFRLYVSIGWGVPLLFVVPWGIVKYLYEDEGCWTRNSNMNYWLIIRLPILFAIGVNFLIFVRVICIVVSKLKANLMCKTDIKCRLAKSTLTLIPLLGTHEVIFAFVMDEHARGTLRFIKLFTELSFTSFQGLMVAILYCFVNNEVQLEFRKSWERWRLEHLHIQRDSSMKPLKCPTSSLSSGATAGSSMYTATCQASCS
row,SMILES,Potency
1,CCCCCC(=O)N1C[C@H](n2cc(COC(=O)c3ccccc3)nn2)[C@@H](O)C[C@@H]1c1ccc(OC)cc1,"inconclusive: 28.2 µM [inhibitor, single point]"
2,COc1ccccc1NS(=O)(=O)c1cc(C(=O)NCC(c2ccco2)N(C)C)ccc1C (centres undefined),"inconclusive: 1.26 µM [inhibitor, full curve, poor fit]"
3,S=C(NCCCN1CCOCC1)N1CCN(c2nc(-c3ccccc3)cs2)CC1,"inconclusive: 10 µM [inhibitor, partial curve, poor fit]"
4,COc1ccc(OC)c(NC(=O)C2(C)CCN2CCc2ccccc2)c1 (centres undefined),"inconclusive: 10 µM [inhibitor, partial curve]"
5,COc1ccccc1NS(=O)(=O)c1cccc(C(=O)N/N=C/c2c(C)nn(-c3ccccc3)c2N2CCCC2)c1,"inconclusive: 2.24 µM [inhibitor, partial curve, poor fit]"
6,O=C(NCC1CCCN(Cc2ccc3nonc3c2)C1)c1cccc(C(F)(F)F)c1 (centres undefined),"inconclusive: 8.91 µM [inhibitor, partial curve, poor fit]"
7,Cc1ccc(C)c(N2CCN(C(=O)c3cc4ccc5cccnc5c4[nH]3)CC2)c1,"inconclusive: 22.4 µM [inhibitor, single point]"
8,CCOc1ccc(NC(=O)CN(C)C(=O)c2cc(C3CC3)nn2-c2ccccc2)cc1OCC,"inconclusive: 31.6 µM [inhibitor, partial curve, poor fit]"
9,CCc1ccccc1NC(=O)C1(S(=O)(=O)c2ccc(Cl)cc2)CC1,"inconclusive: 12.6 µM [inhibitor, single point]"
10,CC(=O)c1ccc(NC(=S)NC(=O)/C=C/c2ccco2)cc1,inactive
11,O=S(=O)(c1ccccc1)c1nc(-c2ccco2)oc1N1CCCCCC1,"inconclusive: 28.2 µM [inhibitor, single point]"
12,CCN(CCCNC(=O)CNC(=O)c1nn(-c2ccc(OC)cc2OC)c(=O)c2ccccc12)c1cccc(C)c1,"inconclusive: 8.91 µM [inhibitor, partial curve, poor fit]"
13,Fc1ccc2nc3n(c2c1F)CCCCCC3,"inconclusive: 12.6 µM [inhibitor, single point]"
14,O=C(N/C(=C\c1ccco1)C(=O)N1CCCC1CO)c1ccccc1 (centres undefined),inactive
15,COc1ccc(-n2nc(C(=O)N3CCC(N4CCCCC4)CC3)c3c4ccccc4n(C)c3c2=O)cc1,"inconclusive: 28.2 µM [inhibitor, single point]"
16,Cc1nn(Cc2ccc(Cl)cc2)c(C)c1NC(=O)c1c(-c2ccccc2)noc1C,"inconclusive: 28.2 µM [inhibitor, single point]"
17,O=C(Nc1nc(-c2ccccc2)cs1)C1CCCO1 (centres undefined),inactive
18,Cc1ccc(NC(=O)NC2(C(=O)NCc3ccccc3)CCCCC2)cc1,inactive
19,COc1ccccc1NC(=S)NNC(=S)Nc1ccc(OC(F)F)cc1,"inconclusive: 22.4 µM [inhibitor, partial curve, poor fit]"
20,O=C(Nc1cccnc1)C1CCCN1S(=O)(=O)c1ccc(Cl)c(Cl)c1 (centres undefined),"inconclusive: 2.51 µM [inhibitor, partial curve, poor fit]"
21,C=CCNC(=O)c1onc(CSc2ccc(OC)cc2)c1C(=O)O,"inconclusive: 28.2 µM [inhibitor, single point]"
22,Cc1cc(NC(=O)CCC(=O)N(Cc2ccco2)C2(C(=O)NC3CCCC3)CCC(C)CC2)no1 (centres undefined),"inconclusive: 28.2 µM [inhibitor, single point]"

row,SMILES,Potency
1,Cc1nnnn1/C(=C\c1ccccc1)C(=O)OCC(=O)NC(C)(C)C,inactive
2,COc1cc(O)c(C(CCN2CCN(c3ccccc3)CC2)c2ccc3c(c2)OCO3)c(OC)c1 (centres undefined),"inconclusive: 11.2 µM [inhibitor, single point]"
3,CCCCCNC(=O)c1c[nH]c2ccc(S(=O)(=O)N3CCC(C)CC3)cc2c1=O,inactive
4,Cc1cccc(-c2cc(N3CCCN(C)CC3)n3nccc3n2)c1,"inconclusive: 28.2 µM [inhibitor, single point]"
5,CCC1CN(C(=O)NCc2ccc(C)cc2)c2cc(C)ccc2O1 (centres undefined),"inconclusive: 20 µM [inhibitor, single point] and inconclusive: 11.2 µM [inhibitor, partial curve, poor fit]"
6,COC(=O)c1sc2ccccc2c1-n1cccc1C(=O)C(=O)Nc1ccc(C)cc1,"inconclusive: 10 µM [inhibitor, partial curve, poor fit]"
7,CCN(CC(=O)NCc1ccc(Cl)cc1)C(=O)/C=C/c1ccccc1,"inconclusive: 7.94 µM [inhibitor, partial curve, poor fit]"
8,CN(C)S(=O)(=O)c1ccc2c(c1)N(CC(=O)NCc1ccccc1)C(=O)C1CCCCN21 (centres undefined),inactive
9,Cc1ccc(-c2c[n+](CC(=O)Nc3c(C)cccc3C)c3n2CCC3)cc1,inactive
10,Cc1ccccc1CCNC(=O)c1ccc2c(c1)c(C)c(C)n2C,"inconclusive: 28.2 µM [inhibitor, single point]"
11,O=C(CN(Cc1ccc(F)cc1)C(=O)CNS(=O)(=O)c1ccc(F)cc1)NCc1ccco1,"inconclusive: 28.2 µM [inhibitor, single point]"
12,Cc1cc(C)c(CN2CCN(C(=O)Cn3cnc4c(NCc5ccccc5)ncnc43)CC2)c(C)c1,active: 8.91 µM
13,C[C@@H]1CCCCCCCCC(=O)OCCN1C(=O)OC(C)(C)C,inactive
14,CCOc1ccc(NC(=S)N=Nc2c(O)[nH]c3ccccc23)cc1,"inconclusive: 14.1 µM [inhibitor, single point]"
15,NC(=S)c1ncc(C(F)(F)F)cc1Cl,inactive
16,Cn1nnnc1SCCCNCc1ccc(-c2ccc(Br)cc2)o1,"inconclusive: 11.2 µM [inhibitor, partial curve, poor fit]"
17,Cc1cccc(CNC(=O)C2CCCN(S(=O)(=O)c3cn(C)cn3)C2)c1 (centres undefined),inactive
18,Cc1onc(-c2ccccc2Cl)c1C(=O)Nc1ccc(Br)cc1,"inconclusive: 10 µM [inhibitor, partial curve, poor fit]"
19,Cc1ccc2oc(=O)c3cc(C(=O)N4CCN(c5ccccc5)CC4)sc3c2c1,inactive
20,OCCN(CCO)c1nc(N2CCCCC2)c2nc(N(CCO)CCO)nc(N3CCCCC3)c2n1,inactive
21,CN(Cc1ccccc1)C(=O)CSc1c2c(nc3ccc(Cl)cc13)CCCC2,"inconclusive: 20 µM [inhibitor, single point]"
22,CC(C)(C)c1ccc(CC(=O)N2CCC2(C)C(=O)Nc2cccc3ccccc23)cc1 (centres undefined),"inconclusive: 10 µM [inhibitor, single point]"

row,SMILES,Potency
1,COc1ccc(NC(=O)NCCCN2CCN(c3ccccc3F)CC2)cc1,inactive
2,Cc1ccc(-n2cc(CNCCCn3cccn3)c(-c3cccc(C)c3)n2)cc1,"inconclusive: 7.94 µM [inhibitor, partial curve, poor fit]"
3,COc1ccccc1/C=C/C=N/n1c(-c2ccc(C)cc2)n[nH]c1=S,inactive
4,COc1ccc(/C=C/C(=O)c2ccc(O)cc2)cc1COc1ccc(F)cc1,inactive
5,CC1C(=O)N(Cc2cn(CCC3OCCO3)nn2)CCS(=O)(=O)N1Cc1ccc(-c2ccc(Cl)cc2)cc1 (centres undefined),"inconclusive: 28.2 µM [inhibitor, single point]"
6,CC(C)C12CN3CC(C(C)C)(CN(C1)C3c1ccccc1)C2O (centres undefined),inactive
7,Cc1cccc(CN2CCSc3sccc3C2=O)c1,"inconclusive: 3.55 µM [inhibitor, partial curve, poor fit]"
8,COc1cc(NC(=O)Cn2c(-c3ccccc3)cc(C(C)=O)c2C)cc(OC)c1,inactive
9,c1ccc(CCCCN2C(Nc3ccccc3)=NC[C@@H]2Cc2ccccc2)cc1,"inconclusive: 11.2 µM [inhibitor, single point]"
10,Cc1cc(C(=O)CN2C(=O)c3ccccc3S2(=O)=O)c(C)n1C(C)C,"inconclusive: 1.41 µM [inhibitor, full curve, poor fit]"
11,CCOC(=O)c1cc2c(ccn2C)n1CC(=O)N1CCN(c2cccc(C(F)(F)F)c2)CC1,"inconclusive: 2.24 µM [inhibitor, full curve]"
12,COc1ccc(Cl)cc1NC(=O)CC(C)=O,"inconclusive: 3.55 µM [inhibitor, partial curve, poor fit]"
13,CCOC(=O)c1c(NC(=S)NNS(=O)(=O)c2ccc(Br)cc2)sc2c1CCCCC2,inactive
14,CCC1=C(OC(=O)N(CC)CC)N2C(=O)OC(=NCC3CC3)[C@]2(Cc2ccccc2)[C@H]2C1=CC[C@H]1C(=O)N(CC(=O)OC)C(=O)[C@H]12,"inconclusive: 20 µM [inhibitor, single point]"
15,CCC(C)N(C)Cc1cccc(C2(O)CCN(S(=O)(=O)c3ccc(F)cc3)CC2)c1 (centres undefined),"inconclusive: 14.1 µM [inhibitor, partial curve, poor fit]"
16,CCN(CC)CCCNC(=O)c1cc2c(Cl)nc3ccccc3c2s1,"inconclusive: 28.2 µM [inhibitor, single point]"
17,CN(CCNC(=O)c1cc2c(-c3ccccc3F)nn(C)c2s1)C1CCCCC1,"inconclusive: 7.94 µM [inhibitor, partial curve, poor fit]"
18,CC1(C)CC(=O)C=C(c2ccc(F)cc2OCc2ccccc2)C1,"inconclusive: 28.2 µM [inhibitor, single point]"
19,COc1ccc(C2c3c(-c4ccccc4)n[nH]c3C(=O)N2c2ccc(C(=O)O)cc2)c(OC)c1 (centres undefined),inactive
20,CCCc1cnc2c(c1SCC(=O)Nc1ccc([N+](=O)[O-])cc1)c(=O)n(C)c(=O)n2C,inactive
